# Measured values: a collection of fitness landscapes (doi:10.1016/j.celrep.2020.107928)
# Over roughly 81,000 sequences, “one-hybrid fitness for binding NBS DNA” has its median near -0.1; the highest 2% begin near 0.36. This is one part of the list.
# B1: Caulobacter ParB omega fusion; a variant is named by its letters at X, in order, B8GW30 (parent)
# chain: MESVVVGEPGMSEGRRGLGRGLSALLGEVDAAPAQAPGEQLGGSREAPIEILQRNPDQPRRTFREEDLEDLSNSIREKGVLQPILVRPSPDTAGEYQIVAGERAWRAAQRAGLKTVPIMVRELDDLAVLEIGIIENVQRADLNVLEEALSYKVLMEKFERTQENIAQTIGKSXSHVANXMRLLXLPDEVQSYLVSGELTAXHARAIAAAADPVALAKQIIEGGLSVRETEALARKAPNLSAGKSKGGRPPRVKDTDTQALESDLSSVLGLDVSIDHRGSTGTLTITYATLEQLDDLCNRLTRGI
# Variants of: B1
# Test: one-hybrid fitness for binding NBS DNA (the Noc-binding site; scaled: cognate 1, non-cognate 0); higher = stronger binding
# Conditions: with NBS DNA site
# Outline: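 In E. coli USO, a HIS3 reporter with its site placed 19 bp from the promoter was used to select Caulobacter ParB variants randomised at four specificity codons. Growth lasted 48 hours at 37°C on histidine-free M9 containing 0.1 mM IPTG and 5 mM 3-AT. Fitness was taken as the log change in variant-to-wild-type read ratio from Illumina sequencing of pre- and post-selection plasmids, rescaled between the non-cognate and cognate sites.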
row,Variant,one-hybrid fitness for binding NBS DNA
1,RARC,0.361
2,QLIF,≤ 0.2
3,KATG,≤ 0.2
4,QLSS,0.317
5,SRHD,≤ 0.2
6,NEDR,≤ 0.2
7,WDAM,≤ 0.2
8,QDCS,≤ 0.2
9,HEIS,≤ 0.2
10,WYQR,≤ 0.2
11,GVGE,≤ 0.2
12,FESS,≤ 0.2
13,NTHA,≤ 0.2
14,AEKA,≤ 0.2
15,LTWN,≤ 0.2
16,DTMA,≤ 0.2
17,PLVF,≤ 0.2
18,TSED,≤ 0.2
19,TWLN,≤ 0.2
20,RSHR,0.476
21,RTAN,≤ 0.2
22,QKKE,0.283
23,ENPT,≤ 0.2
24,HALK,≤ 0.2
25,ECYG,≤ 0.2
26,HKAV,≤ 0.2

row,Variant,one-hybrid fitness for binding NBS DNA
1,SPIG,≤ 0.2
2,NDYL,≤ 0.2
3,QCNI,≤ 0.2
4,NNKV,≤ 0.2
5,VSGV,≤ 0.2
6,AHRE,≤ 0.2
7,GSKT,≤ 0.2
8,EAIR,≤ 0.2
9,PQMS,≤ 0.2
10,ARPG,≤ 0.2
11,NSIT,≤ 0.2
12,VRSL,≤ 0.2
13,RTYH,≤ 0.2
14,RTKT,0.724
15,FNYT,≤ 0.2
16,FRPA,≤ 0.2
17,VRTY,≤ 0.2
18,VPSP,≤ 0.2
19,GLQI,≤ 0.2
20,KKYR,≤ 0.2
21,RHST,0.435
22,IRAA,≤ 0.2
23,PHPA,≤ 0.2
24,DAPF,≤ 0.2
25,GHKE,≤ 0.2
26,PCWV,≤ 0.2

row,Variant,one-hybrid fitness for binding NBS DNA
1,TGYG,≤ 0.2
2,IKFI,≤ 0.2
3,DIAF,≤ 0.2
4,TGNF,≤ 0.2
5,NHIS,≤ 0.2
6,KWKS,≤ 0.2
7,KVAT,≤ 0.2
8,HSVT,≤ 0.2
9,MATF,≤ 0.2
10,NIFR,≤ 0.2
11,SLEL,≤ 0.2
12,TEDN,≤ 0.2
13,PWKC,≤ 0.2
14,PPTW,≤ 0.2
15,AEMW,≤ 0.2
16,SFLE,≤ 0.2
17,LMQR,≤ 0.2
18,VCRI,≤ 0.2
19,RIYF,≤ 0.2
20,PWKH,≤ 0.2
21,RRCY,0.348
22,HTKN,≤ 0.2
23,PVII,≤ 0.2
24,NTHL,≤ 0.2
25,GVHC,≤ 0.2
26,ESQR,≤ 0.2

row,Variant,one-hybrid fitness for binding NBS DNA
1,DRSD,≤ 0.2
2,KLVC,≤ 0.2
3,SVKR,≤ 0.2
4,VAIN,≤ 0.2
5,RLHG,≤ 0.2
6,AIVN,≤ 0.2
7,VWTM,≤ 0.2
8,NMFK,≤ 0.2
9,DALV,≤ 0.2
10,PSQS,≤ 0.2
11,FIHC,≤ 0.2
12,TCMV,≤ 0.2
13,PNWP,≤ 0.2
14,IGPE,≤ 0.2
15,THKH,≤ 0.2
16,MNGR,≤ 0.2
17,LCNI,≤ 0.2
18,GLTY,≤ 0.2
19,IPCR,≤ 0.2
20,RWHY,0.21
21,PPSD,≤ 0.2
22,PIYW,≤ 0.2
23,GMRR,≤ 0.2
24,VWGF,≤ 0.2
25,YLMG,≤ 0.2
26,GSPK,≤ 0.2

row,Variant,one-hybrid fitness for binding NBS DNA
1,SHNN,≤ 0.2
2,QNKR,0.504
3,RDPC,≤ 0.2
4,QKYN,≤ 0.2
5,WPVW,≤ 0.2
6,RQII,≤ 0.2
7,QILG,≤ 0.2
8,QGTD,≤ 0.2
9,DERH,≤ 0.2
10,QHYC,≤ 0.2
11,MPKV,≤ 0.2
12,GTFT,≤ 0.2
13,PHRC,≤ 0.2
14,HYDS,≤ 0.2
15,ATHC,≤ 0.2
16,LCKC,≤ 0.2
17,QMLR,0.5
18,RGSW,≤ 0.2
19,GFHT,≤ 0.2
20,QILV,≤ 0.2
21,FNKS,≤ 0.2
22,SYYY,≤ 0.2
23,TAGD,≤ 0.2
24,EVAF,≤ 0.2
25,MADY,≤ 0.2
26,HQWR,≤ 0.2

row,Variant,one-hybrid fitness for binding NBS DNA
1,EMSI,≤ 0.2
2,AMDG,≤ 0.2
3,QGRR,0.33
4,PEQW,≤ 0.2
5,DFQC,≤ 0.2
6,GPHA,≤ 0.2
7,SATI,≤ 0.2
8,AHRR,≤ 0.2
9,NYFR,≤ 0.2
10,TPCL,≤ 0.2
11,TQNY,≤ 0.2
12,RQAI,≤ 0.2
13,LEMC,≤ 0.2
14,MMSR,≤ 0.2
15,CAIG,≤ 0.2
16,KTMC,≤ 0.2
17,FAYC,≤ 0.2
18,WREL,≤ 0.2
19,SLLF,≤ 0.2
20,HLMT,≤ 0.2
21,DMSK,≤ 0.2
22,WRQA,≤ 0.2
23,PMSP,≤ 0.2
